{
  "source": "PubChem BioAssay AID504332",
  "about": "(National Center for Advancing Translational Sciences (NCATS), 2011)",
  "note": "Screen size: about 350,000 compounds; about 31,000 (8.9%) were called active. The shares of active, inactive and inconclusive entries below differ from those in the screen. Calls follow the shape of the dose curve; as a rule, active = well fitted inhibition curve with a large enough effect; inconclusive = small, poorly fitted or top-dose-only effect; inactive = no such curve, though single readings can be large or run the other way. Potencies of inconclusive entries are doubtful fits and often do not repeat. % is scaled to controls: 0 for no effect and ±100 for the full control effect; potency is read from the fitted curve at half-maximal effect; tags tell the direction and shape of the fitted curve.",
  "data": [
    {"target": "Histone-lysine N-methyltransferase EHMT2 (Homo sapiens) (UniProt Q96KQ7)", "sequence (Q96KQ7 whole entry, looked up)": "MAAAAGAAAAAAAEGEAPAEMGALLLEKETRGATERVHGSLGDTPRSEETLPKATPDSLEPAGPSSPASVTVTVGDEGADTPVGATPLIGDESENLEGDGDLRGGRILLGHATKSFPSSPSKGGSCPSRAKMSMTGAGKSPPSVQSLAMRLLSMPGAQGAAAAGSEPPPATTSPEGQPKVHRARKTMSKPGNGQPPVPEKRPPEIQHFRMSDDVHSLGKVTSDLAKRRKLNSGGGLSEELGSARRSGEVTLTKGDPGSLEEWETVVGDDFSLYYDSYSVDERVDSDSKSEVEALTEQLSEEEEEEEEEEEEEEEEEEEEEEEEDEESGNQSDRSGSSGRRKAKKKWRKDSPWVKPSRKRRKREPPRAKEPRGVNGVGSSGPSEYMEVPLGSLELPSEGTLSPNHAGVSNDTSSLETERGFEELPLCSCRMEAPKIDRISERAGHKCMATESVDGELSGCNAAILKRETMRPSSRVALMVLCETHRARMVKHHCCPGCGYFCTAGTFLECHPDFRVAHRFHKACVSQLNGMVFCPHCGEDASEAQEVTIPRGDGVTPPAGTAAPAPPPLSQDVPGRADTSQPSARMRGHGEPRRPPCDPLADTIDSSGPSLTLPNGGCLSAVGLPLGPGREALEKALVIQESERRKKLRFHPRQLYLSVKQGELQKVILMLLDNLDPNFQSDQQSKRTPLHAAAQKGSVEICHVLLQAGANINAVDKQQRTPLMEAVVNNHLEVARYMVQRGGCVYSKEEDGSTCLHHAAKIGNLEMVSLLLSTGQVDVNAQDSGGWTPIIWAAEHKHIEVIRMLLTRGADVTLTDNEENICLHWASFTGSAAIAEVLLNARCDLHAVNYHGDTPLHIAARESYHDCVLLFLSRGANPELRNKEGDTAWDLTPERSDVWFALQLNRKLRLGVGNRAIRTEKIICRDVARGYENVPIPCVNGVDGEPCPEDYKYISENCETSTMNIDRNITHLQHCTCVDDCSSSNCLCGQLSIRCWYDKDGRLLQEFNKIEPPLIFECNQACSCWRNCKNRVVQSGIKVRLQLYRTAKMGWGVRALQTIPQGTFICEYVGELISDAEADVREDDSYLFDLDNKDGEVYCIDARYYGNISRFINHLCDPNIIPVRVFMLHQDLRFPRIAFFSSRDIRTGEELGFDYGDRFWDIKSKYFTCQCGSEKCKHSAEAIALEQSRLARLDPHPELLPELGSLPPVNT", "assay": "qHTS Assay for Inhibitors of Histone Lysine Methyltransferase G9a; also: nearly all actives have a fitted effect of over 75% in size", "details": "G9a H3K9 monomethylation, AlphaScreen, 2 h; activity, negative = inhibition: at 59 µM (top of the series) unless noted", "outline": "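Step 1: enzyme (final 20 nM) with compound, 15 min RT. Step 2: substrate peptide 500 nM and SAM 20 uM, 2 h RT. Step 3: anti-H3K9me1 antibody and AlphaScreen beads, 10 min, then plate read.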", "values": [
      {"smiles": "CC(C)Oc1ccc(S(=O)(=O)N2CCOCC2)cc1NC(=O)Cc1c(F)cccc1Cl", "Potency": "inactive"},
      {"smiles": "O=C(COC(=O)Cc1n[nH]c(=O)c2ccccc12)NNC(=O)c1ccccc1", "Potency": "inconclusive: 89.1 µM [inhibitor, single point]"},
      {"smiles": "COc1ccc(NS(=O)(=O)c2ccc(N)c(C(=O)O)c2)cc1", "Potency": "inconclusive: 39.8 µM [inhibitor, single point]"},
      {"smiles": "CCn1ncc(/C=N\\NC(=O)c2ccc3c(c2)c(C)c(C)n3Cc2ccccc2)c1C", "activity, negative = inhibition": "inactive: -12.5% [at 12.7 µM]"},
      {"smiles": "O=C(Nc1cccc(OC(=O)c2cccnc2)c1)c1cccnc1", "Potency": "inconclusive: 8.91 µM [inhibitor, single point]"},
      {"smiles": "CCN1CCSc2ccc(C(=O)NCc3ccc(F)cc3)cc21", "Potency": "inconclusive: 35.5 µM [inhibitor, single point]"},
      {"smiles": "CN(Cc1ccco1)c1nc(-c2cccnc2)nc2ccccc12", "activity, negative = inhibition": "inactive: -1.16% [at 0.501 µM]"},
      {"smiles": "Cc1cc(C)n(-c2c(C)[nH]c3ccccc23)n1", "Potency": "inactive"},
      {"smiles": "CCN(CC)c1ccc(C(=O)Nc2ccccc2)cc1[N+](=O)[O-]", "Potency": "inconclusive: 39.8 µM [inhibitor, partial curve, poor fit]"},
      {"smiles": "CC(OC(=O)CCCN=C1NS(=O)(=O)c2ccccc21)C(=O)Nc1ccccc1[N+](=O)[O-]", "note": "(centres undefined)", "Potency": "inconclusive: 50.1 µM [inhibitor, partial curve]"},
      {"smiles": "CCNC(=S)N/N=C(\\C)c1ccc2c(c1)OCCO2", "Potency": "inactive"},
      {"smiles": "O=C(Nc1nc2ccccc2s1)c1cccc(S(=O)(=O)N2CCc3ccccc32)c1", "activity, negative = inhibition": "inconclusive: -51.3% [inhibitor]"},
      {"smiles": "OC(CCN1CCCCC1)c1ccc(-c2ccccc2)cc1", "note": "(centres undefined)", "Potency": "inactive"},
      {"smiles": "CC(C)(C)n1nc2c(c1NC(=O)Cc1cccc3ccccc13)CS(=O)C2", "note": "(centres undefined)", "Potency": "inconclusive: 44.7 µM [inhibitor, partial curve, poor fit]"},
      {"smiles": "COc1ccc(NCc2cccn2-c2nnc(N3CCOCC3)s2)cc1OC", "Potency": "inconclusive: 22.4 µM [inhibitor, single point]"},
      {"smiles": "CCOC(=O)c1ccc(N=c2scc(C)n2CC)cc1", "Potency": "active: 22.4 µM"},
      {"smiles": "Cc1cc(C(=O)COC(=O)/C=C/c2cccc(Br)c2)c(C)n1C", "Potency": "active: 44.7 µM"},
      {"smiles": "CC(C)n1cc([C@@H]2C[C@H]3CN(Cc4cccc(Cl)c4)C(=O)[C@]34CCCN24)cn1", "Potency": "inactive"},
      {"smiles": "NC(=S)N/N=C/c1ccc(-c2cc(Cl)ccc2Cl)o1", "Potency": "inactive"},
      {"smiles": "COc1ccccc1NC(=O)/C=C\\c1ccco1", "Potency": "active: 39.8 µM"},
      {"smiles": "Cc1cccc(NNC(=O)C(=O)NNc2cccc(C)c2)c1", "Potency": "inconclusive: 20 µM [inhibitor, partial curve, poor fit]"},
      {"smiles": "Cc1ccc(NS(=O)(=O)c2ccc(Cl)c(C(=O)O)c2)cc1S(=O)(=O)N1CCOCC1", "Potency": "inconclusive: 79.4 µM [inhibitor, single point]"},
      {"smiles": "CC(Cc1cccs1)N(Cc1ccc(Cl)cc1)C(=O)c1ccncc1", "note": "(centres undefined)", "Potency": "inconclusive: 1.41 µM [inhibitor, single point]"},
      {"smiles": "COCCCNC(=O)c1nn(C)c2c1CS(=O)(=O)c1ccccc1-2", "Potency": "inactive"},
      {"smiles": "CCOc1ccc(OCC(=O)Nc2ccc(S(N)(=O)=O)cc2)cc1", "Potency": "inconclusive: 79.4 µM [inhibitor, partial curve, poor fit]"},
      {"smiles": "COC(=O)c1ccc(COc2ccccc2/C=N/NS(=O)(=O)c2ccc(C)cc2)cc1", "Potency": "inconclusive: 79.4 µM [inhibitor, single point]"},
      {"smiles": "CSc1nsc(SC)c1NC(=O)Nc1ccccn1", "Potency": "inconclusive: 89.1 µM [inhibitor, single point]"},
      {"smiles": "COc1cc(S(=O)(=O)N2CCOCC2)ccc1NC(=O)COC(=O)C12CC3CC(CC(C3)C1)C2", "Potency": "inconclusive: 1.12 µM [inhibitor, full curve, poor fit]"},
      {"smiles": "CC1CCN(C(=O)c2ccc3c(c2NCCO)C(=O)c2ccccc2C3=O)CC1", "activity, negative = inhibition": "inconclusive: -96.6% [inhibitor]"},
      {"smiles": "CC(=O)Nc1ccc(C2=NN(c3ccccc3)C(c3cccs3)C2)cc1", "note": "(centres undefined)", "Potency": "inconclusive: 44.7 µM [inhibitor, partial curve, poor fit]"},
      {"smiles": "CCn1c2ccccc2c2nn(C)c(=N)nc21", "activity, negative = inhibition": "inactive: -38.6% [at 12.7 µM]"},
      {"smiles": "CCN(CC)CCOC(=O)C(c1ccccc1)c1ccccc1", "Potency": "inactive"},
      {"smiles": "O=C(CSc1nnc2[nH]c(=O)cc(-c3ccccc3)n12)Nc1ccc(OC(F)(F)F)cc1", "Potency": "inconclusive: 4.47 µM [inhibitor, partial curve, poor fit]"},
      {"smiles": "COc1ccc(CCNC2CC(=O)N(CCc3ccccc3)C2=O)cc1OC", "note": "(centres undefined)", "Potency": "inconclusive: 100 µM [inhibitor, single point]"},
      {"smiles": "CC1c2ccccc2CN1CC1=NCCN1", "note": "(centres undefined)", "Potency": "inconclusive: 22.4 µM [inhibitor, single point]"},
      {"smiles": "S=c1[nH]nc(-c2cccnc2)n1/N=C/C=C/c1ccccc1", "Potency": "active: 1.78 µM"},
      {"smiles": "COCc1cc(C)nc2sc3c(c12)NC(c1ccccc1C(=O)O)N(c1cccc(C(F)(F)F)c1)C3=O", "note": "(centres undefined)", "Potency": "inactive"},
      {"smiles": "Cc1nc2ccccc2n1CC(O)COc1ccc(Br)cc1", "note": "(centres undefined)", "Potency": "inconclusive: 89.1 µM [inhibitor, partial curve, poor fit]"},
      {"smiles": "Cc1ccc(S(=O)(=O)c2nc(-c3cccc(Br)c3)oc2N2CCCCCC2)cc1", "Potency": "inconclusive: 1.78 µM [inhibitor, partial curve, poor fit]"},
      {"smiles": "CN(C)c1ccc(NC(=O)CSc2nc3ccccc3c(=O)n2CC2CCCO2)cc1", "note": "(centres undefined)", "Potency": "inconclusive: 79.4 µM [inhibitor, partial curve, poor fit]"},
      {"smiles": "CCCCOc1cccc(C2/C(=C(/O)c3ccc4c(c3)CC(C)O4)C(=O)C(=O)N2CCN2CCOCC2)c1", "note": "(centres undefined)", "Potency": "inconclusive: 56.2 µM [inhibitor, partial curve, poor fit]"},
      {"smiles": "O=C(N/N=C/C=C/c1ccco1)/C(=C/c1ccccc1)NC(=O)c1ccccc1", "Potency": "active: 28.2 µM"},
      {"smiles": "CCOC(=O)C1=C(CSc2nc(-c3ccccc3)ccc2C#N)OC(N)=C(C#N)C1c1ccc(OC)cc1", "note": "(centres undefined)", "Potency": "active: 31.6 µM"},
      {"smiles": "Cc1cc(C(F)(F)F)nc(SCCN2CCOCC2)c1C#N", "Potency": "active: 12.6 µM"}
    ]}
  ]
}
